± gives the standard deviation of the averaged measurements. The list shows a part of the results.
Tested on: PfAP2-EXP AP2 domain (GST-tagged)
Assay: gcPBM binding intensity (ln(normalized median fluorescence intensity)); higher = stronger DNA binding
In short: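 Binding intensity values are the highest Masliner-normalised natural-log median intensity among replicate spots of either probe orientation. The binding step lasted 1 h in 1× PBS with 1% milk, 0.2 mg/ml BSA, 0.5% salmon testes DNA and 0.03% Triton X-100, using GST-tagged P. falciparum DNA-binding domains expressed in E. coli on an Agilent 4 × 180k array of primer-extended double-stranded 36-bp intergenic genomic probes plus negative controls. Alexa488 anti-GST antibody and a 488 nm scan detected bound protein.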

| Sequence | gcPBM binding intensity (ln) |
| --- | --- |
| AAGCTTTGGTGTTATGCATGCAATTAAACTATTAGT [TGCATGCA_site277] | 9.68 ± 0.16 |
| TTTTATTTTTTAGTAGTACACACTTTTTGTACCTTT [CACACA_site599] | 8.71 ± 0.41 |
| TATTATATATATAACTGTACGTTTATAATATAAAAA [XGTACX_site3778] | 8.31 ± 0.45 |
| TTTCTTTTTTTTTTTTGTACATATTTTAATTATTTT [XGTACX_site8676] | 8.68 ± 0.47 |
| TATTTTAATTAATATACACACGCTTATATATATATA [CACACA_site7909] | 9.85 ± 0.18 |
| TACAAACTATGATGCACACATATATATCTGTATCCA [CACACA_site4809] | 8.66 ± 0.2 |
| AGTGTTAAAAATGAGGGTACATATAAAATACAGTTC [XGTACX_site457] | 8.85 ± 0.4 |
| TAATCATTTTAGCTTACACACAAAATTTGGTTATAA [CACACA_site5604] | 8.37 ± 0.41 |
| ACAGGATTGGTTCAAACACACATATTATATGACTAT [CACACA_site4536] | 8.57 ± 0.68 |
| ATTCCACCTTAAAACTGTACTTTCTCAATCTTTTAT [XGTACX_site796] | 8.95 ± 0.46 |
| CATATATAAATATGTATGCACTTTAACAAAATGTAT | 8.39 ± 0.16 |
| ATATTTATTTATATGTGTACTTATGTTTATATAAAA [XGTACX_site4250] | 8.56 ± 0.42 |
| GGAATTATAATAAATGGTACACATAAAAAAAAAAAA [XGTACX_site8343] | 8.77 ± 0.59 |
| ATAAAGTAGATATTTTGTACGCAGGTTGTATATATT [XGTACX_site1464] | 8.75 ± 0.31 |
| TACTTTACTAATATATATAGGAGAGTATACATGAAA [CACACA_negctrl_site63] | 8.63 ± 0.48 |
| ATTATGTTATATACACGTACGTGTGCTTTATAATTA [XGTACX_site2728] | 9.02 ± 0.33 |
| TAATAAATAGGACACACACACATATATATATATTAT [CACACA_site4891] | 8.87 ± 0.52 |
| AAAGAAGGATAATAATGTACAAGCAAAAAAATAAAA [XGTACX_site466] | 8.88 ± 0.19 |
| AATATGTGAATATAATCACACACAATACGGAAACAC [CACACA_site8875] | 9.37 ± 0.22 |
| CTTTTTTTAATGATAACACACATGTTGTGCATAGAC [CACACA_site3270] | 8.98 ± 0.16 |
| AAATAATTATTTATCACACATATGTATTTATATATA [CACACA_site4589] | 8.62 ± 0.45 |
| AACATATATATAATATGTACATAATATATATAAATG [XGTACX_site1161] | 8.52 ± 0.3 |
| ACATATATTTCAAAGTGTACGCACAATTTTTTTTAC [XGTACX_site6166] | 8.77 ± 0.25 |

| Sequence | gcPBM binding intensity (ln) |
| --- | --- |
| ATTTCAACAAATATAACACACAATGGATAAGAATAA [CACACA_site1974] | 8.84 ± 0.48 |
| GTAAGAACACTTTTGTGGTTACTTAAAAGTGTATAT [GTGCAC_negctrl_site422] | 8.27 ± 0.43 |
| TTATTATTTTTTAACACACACATATATATTATATCT [CACACA_site4906] | 8.62 ± 0.4 |
| TTAGTTTCCCAAATATGTACATAAATATAAATCATA [XGTACX_site2746] | 8.58 ± 0.34 |
| AATACAGTTAGAGAAAGTACACAACTAATATACATA [XGTACX_site8814] | 8.72 ± 0.39 |
| TGCTTATATGTTGTTACACACTAAAATAGTTAGATA [CACACA_site1277] | 8.54 ± 0.47 |
| AATACACGCAGACACACACACAAAAAAAAAAAAAAA [CACACA_site6384] | 8.3 ± 0.4 |
| ATTTTGTTATGAAACACACACATATAAATATAAATA [CACACA_site7679] | 8.51 ± 0.3 |
| AATTGTGCATTATATTGTACACGTGTTGTATATATT [XGTACX_site975] | 9.075 ± 0.078 |
| TTGAATATGGTTACATGTACGTATCAATATTTTTTA [XGTACX_site4247] | 8.34 ± 0.43 |
| TATATAAAACATGGGTGTACCAACATAAATCATATA [XGTACX_site2320] | 8.78 ± 0.43 |
| TATACATTATTATTATGTACTTAAATATATATTATA [XGTACX_site5173] | 8.35 ± 0.34 |
| ATTAACACATTTAAGTGTACATATATAAATATATAT [XGTACX_site7098] | 8.29 ± 0.26 |
| TGTGCACGTTCTGTGACACACATTTAAATGTGCTTA [CACACA_site176] | 8.62 ± 0.35 |
| GGAACGTATATTTTCACACACTCTCAAAAGTACAAG [CACACA_site2301] | 8.66 ± 0.37 |
| GAAACAAAATTATTTTGTACATATGACTGTAGATAT [XGTACX_site972] | 8.8 ± 0.28 |
| ATATAACTCAAGGGCACACATATACCTTTCCTTTTT [CACACA_site4390] | 8.81 ± 0.43 |
| ATATATATATATAGTTGTACTTAATTTTATATGTTA [XGTACX_site5256] | 10.2 ± 0.15 |
| AAACTTATAAAAAGTAGTACCATAAAATAATACATA [XGTACX_site6523] | 8.36 ± 0.16 |
| TTTTACAAATATTACTGTACACATTTTCATATAATT [XGTACX_site17] | 8.73 ± 0.35 |
| GTGAAATTATTTCCGTGTACACATAAATATATATTT [XGTACX_site3989] | 9.325 ± 0.021 |
| CCTTGATATATATAAAGTACATATATATATATATAT [XGTACX_site4325] | 10.2 ± 0.24 |
| TATATTATTTATTAGACACACATTATTAAAATATTT [CACACA_site4737] | 8.21 ± 0.31 |

| Sequence | gcPBM binding intensity (ln) |
| --- | --- |
| TGTTGTATATCTCTATATAGCTATATTGTATATATA [TGCATGCA_negctrl_site323] | 8.62 ± 0.38 |
| AGTATACAGATATATACACACATATTTATATTTATA [CACACA_site6394] | 8.22 ± 0.41 |
| CATACATACCTATATACACACATATAAAATAATATA [CACACA_site7290] | 8.66 ± 0.28 |
| TCTATATGTTGATTCACACATAAAGAATAAATAAAA [CACACA_site6017] | 8.48 ± 0.45 |
| GGCAACATTTGAAACACACACACATACAAACAAACA [CACACA_site3307] | 8.94 ± 0.36 |
| TGTTATTATTTGTACACACACATATATATCCTTGTT [CACACA_site3616] | 8.93 ± 0.3 |
| TATATGAACTTATATACACACCATTTTTGTAAATCT [CACACA_site4547] | 8.38 ± 0.33 |
| AACACGCGCAGACACACACACACACCCACATATATA [CACACA_site2205] | 8.79 ± 0.59 |
| TATAATATATTATATACACACATTATGAAATCCACA [CACACA_site1330] | 8.57 ± 0.44 |
| AAACAATACTGATATTGTACATAATAAAAAAAAATA [XGTACX_site3330] | 8.63 ± 0.31 |
| ATTTTGATGCATGGGTTGCACTAACTTTTGCCCAGA | 8.74 ± 0.17 |
| ATAAATATATTTTATAGTACATAAATATCAAAAAAA [XGTACX_site2334] | 8.55 ± 0.28 |
| AAAATATGTATGTAAAGTACTAATATACAAATTTTT [XGTACX_site5186] | 8.37 ± 0.39 |
| TTTTTTTTTTTTGATGCACACACCTGAACGAGTTAA [CACACA_site317] | 8.62 ± 0.32 |
| TATTTTTATATATGACGTACTCTACAATTATTAATG [XGTACX_site5818] | 8.57 ± 0.36 |
| TAGTCGTTTTTTTAATGTACTCACGCATAATATAAT [XGTACX_site6499] | 8.7 ± 0.33 |
| ATATAAATATTCCACACACACACAAAAAAAAAAAAA [CACACA_site7678] | 8.32 ± 0.6 |
| TTAATTATAAGAAAAAGTACTCATTACATTATAGAA [XGTACX_site678] | 8.53 ± 0.092 |
| TGAAAAGTAAAATACACACACATAATATAATTTATA [CACACA_site1989] | 8.57 ± 0.47 |
| CATATACATCCACATACACACATACACCCATACACA [CACACA_site5038] | 8.73 ± 0.46 |
| GTTCAAAATATGAACACACACATATAGATTTATATA [CACACA_site7054] | 8.39 ± 0.35 |
| ATCATTTTTAAAGGAACACACAAAAAAAATTAGAAT [CACACA_site1370] | 8.81 ± 0.47 |
| AAAGGATATAGACACACACACACATATATATATATA [CACACA_site2200] | 10.2 ± 0.14 |

| Sequence | gcPBM binding intensity (ln) |
| --- | --- |
| ATTATTTTTTTTGTTACACACATGACTTATTTTTAT [CACACA_site3228] | 8.89 ± 0.44 |
| GCCAAAAGGATATGCACACACACACCCATATATATA [CACACA_site2198] | 8.79 ± 0.38 |
| CAAGGAACCGGACACACACACATAAATGTATTTATA [CACACA_site4574] | 8.46 ± 0.5 |
| CATTATCATGTTTTTTGTACTCATAATAAAAAGCAG [XGTACX_site2056] | 8.37 ± 0.27 |
| AATAATTGTTAAAGTTGTACTATACGTATATAAGAA [XGTACX_site1432] | 8.86 ± 0.33 |
| AAAAATGAATTATTTTGTACATATATATATATATAT [XGTACX_site3410] | 10.1 ± 0.38 |
| ATTTACAAAAGGAAAGTGCAAACATGTGATTAAACA [CACACA_negctrl_site714] | 9 ± 0.3 |
| TATATATAGAAACACACACACACCAAAGCGTAGCGC [CACACA_site62] | 8.77 ± 0.43 |
| ATAAAGATATGACACACACACATATTATAGATATAT [CACACA_site7434] | 8.54 ± 0.59 |
| ATCAATTTAATTTATTGTACTTGTTTGTTTTTTTAT [XGTACX_site7544] | 8.54 ± 0.32 |
| GATAACATAATATGTTGTACATAAAAATTTTTATCA [XGTACX_site1969] | 8.61 ± 0.37 |
| AACTTATTTAAATTCACACATATATAAAATACTTAT [CACACA_site4394] | 8.38 ± 0.42 |
| ACATATGACTATAATACACACTTGTATTATTAATAT [CACACA_site6951] | 8.29 ± 0.34 |
| TACTCATAATATTGATAATTAAAAAGATAAACTATT [XGTACX_negctrl_site299] | 8.245 ± 0.049 |
| AATTTTATTACTTTTACACACCTATATATTATTCAT [CACACA_site3273] | 8.81 ± 0.48 |
| ATTATTTTATTATAGTGTACTTTTTTAATCAAAGGA [XGTACX_site8921] | 8.49 ± 0.15 |
| TTTTAAAAAAAATATAAAAAAAGAGGAGGGATGGTA [GTGCAC_negctrl_site35] | 8.68 ± 0.41 |
| TAATTTAAACAAAAAAGTACAAATTTCTTTTTATTA [XGTACX_site5244] | 7.83 ± 0.31 |
| ATTTTAATTACATATACACACAAAGGTTCATAACAA [CACACA_site9008] | 8.46 ± 0.39 |
| TATGTTTTTACGTGTGTGCACTTTGTAGAGATAAGT | 9.29 ± 0.12 |
| AAAAAAAAAAAAATATGTACTTATTTTTATGTTAAA [XGTACX_site8802] | 8.32 ± 0.24 |

Reference: the supplement of paper PMC11417369
